Measured values published in PubChem BioAssay AID493014 (National Center for Advancing Translational Sciences (NCATS), 2011).
The whole screen tested about 340,000 compounds, of which about 170 (0.05%) were called active. Inconclusive results (about 26%) are left out. The call rests on the fitted dose curve; in most records, active means well fitted inhibition curve with a large enough effect in the signal ratio, with a control signal flat (not every such curve was filed as active); inconclusive means small, poorly fitted or top-dose-only effect, or effect the other way, or a change in a side signal; inactive means flat fitted curve, though single readings scatter; the % refers to the signal ratio. The entries are a selection whose mix differs from that of the whole data set.

test: qHTS Assay to Find Inhibitors of Chronic Active B-Cell Receptor Signaling; details: ABC-DLBCL IkBa-CBG/CBR reporter, luminescence ratio (green luciferase fused to IkBa over red control in TMD8 lymphoma cells), 4 h; series mostly up to 46.1 µM; activity change, negative = inhibition: at the top concentration;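 on activity change, negative = inhibition: plate controls were basal doxycycline-induced cells for no effect and cells given 10 µM MG132 for full effect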
How it was run: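 Compounds up to 46 uM were incubated four hours with TMD8 cells whose green CBG68 luciferase is fused to IkappaBalpha; red CBR luminescence normalised the signal, and concentration-effect curves were fitted to fusion, red and ratio data.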
Potency means the concentration at half of the fitted maximal effect.

Row | Structure (SMILES) | activity change, negative = inhibition | Potency
1 | O=C1N[C@@H](Cc2ccccc2)COC(=O)[C@H](Cc2ccc(F)cc2)CC/C=C/C[C@@H]1CC(=O)N(CCO)Cc1ccccc1 | inactive: 0.18% | –
2 | CCN1/C(=C2/OC(=S)N(C)C2=O)Sc2ccccc21 | inactive: -1.27% | –
3 | O=C1NCCOC(=O)[C@H](Cc2ccc(F)cc2)C/C=C\C[C@H]1CC(=O)N(CCO)Cc1ccccc1 | inactive: -0.325% | –
4 | Nc1nc(Cl)nc2c1ncn2[C@H]1C[C@H](O)[C@@H](CO)O1 | inactive: 2.03% | –
5 | CC(=O)Nc1ccc(S(=O)(=O)NC(C)C(=O)OCC(=O)NC2CCCC2)cc1 (stereo not given) | inactive: 4.85% | –
6 | COc1ccc(C(F)(F)F)cc1N/C=C\c1nnnn1-c1ccc(C)cc1 | inactive: 8.57% | –
7 | COc1ccccc1/C=C\C=N\NC(=O)CCn1nnc2ccccc21 | inactive: -0.0277% | –
8 | Cc1ccc(C(=O)N/C(=C/c2cccs2)C(=O)N2CCCCCC2)cc1 | inactive: -0.262% | –
9 | COC(=O)C1=C(C)N(Cc2ccccc2)C(=NCCc2c[nH]c3ccccc23)N[C@H]1c1ccccc1 | inactive: 0.548% | –
10 | O=C(NC1CC1)C1=C[C@H](C2CCCCC2)C[C@H](OCc2ccc(CO)cc2)O1 | inactive: 3.6% | –
11 | C[C@@H](N)C(=O)NC[C@H]1O[C@@H](n2cnc3c(N)ncnc32)[C@H](O)[C@@H]1O | inactive: 4.52% | –
12 | Cc1cn(C2C=CC(CO)O2)c(=O)[nH]c1=O (stereo not given) | inactive: -0.889% | –
13 | CCOC(=O)c1c(C)nc(C)c(C(=O)OCC)c1-c1ccc(OC)cc1 | inactive: -3.32% | –
14 | Cc1onc(-c2c(Cl)cccc2Cl)c1C(=O)N[C@@H]1C(=O)N2[C@@H]1SC(C)(C)[C@@H]2C(=O)O | – | inactive
15 | COc1ccc([C@@H]2CC(=O)c3c(O)cc(O[C@@H]4OC(CO[C@@H]5OC(C)[C@H](O)[C@@H](O)[C@H]5O)[C@@H](O)[C@H](O)[C@H]4O)cc3O2)cc1O (stereo not given in full) | inactive: 0.677% | –
16 | O=c1cc(-c2ccc(O)cc2)oc2cc(O)c([C@@H]3O[C@H](CO)[C@@H](O)[C@H](O)[C@H]3O)c(O)c12 | inactive: 5.29% | –
17 | O=C(O)c1ccc(CSc2nnc(-c3ccco3)o2)cc1 | – | active: 18.4 µM
18 | COC(=O)[C@H]1[C@H]2C[C@H]3c4[nH]c5ccccc5c4CCN3C[C@@H]2CC[C@@H]1O | – | inactive
19 | COc1ccc2c(c1OC)C(=O)OC2C1c2c(cc3c(c2OC)OCO3)CCN1C (stereo not given) | – | inactive
20 | O=C(C1=C[C@H](c2coc3ccccc3c2=O)C[C@H](OCCCCO)O1)N1CCOCC1 | inactive: -2.6% | –
21 | COc1ccc(C2C(=O)N(C3CCCCC3)CC(=O)N2C2CCCCC2)cc1 (stereo not given) | inactive: -3.36% | –
22 | C[C@@H]1C=C(C(=O)NC2CC2)O[C@H](OCc2ccc(CO)cc2)C1 | inactive: -9.18% | –
23 | CCCOC(=O)CCCC[C@H]1SC[C@@H](NC(=O)OC)[C@H]1NC(=O)OC | inactive: -2.32% | –
24 | O=C(C[C@@H]1C/C=C/CC[C@@H](Cc2ccc(F)cc2)C(=O)OC[C@H](Cc2ccccc2)NC1=O)N[C@H](CO)Cc1ccccc1 | inactive: 4.27% | –
25 | C[C@@H]1CC[C@]2(O[C@@H](CCO)C[C@H](O)[C@H]2O)O1 | inactive: -0.458% | –
26 | CCN1C(=NCCCCO)N[C@@H](c2cccc(C(F)(F)F)c2)C(C(=O)OC)=C1C | inactive: -11.7% | –
27 | CCOC(=O)c1ccc(NC(=O)N2CC(C)OC(C)C2)cc1 (stereo not given) | inactive: -3.38% | –
28 | CCN(CC)CCOc1ccc(/C(=C(\Cl)c2ccccc2)c2ccccc2)cc1 | inactive: -9.88% | –

Row | Structure (SMILES) | activity change, negative = inhibition | Potency
29 | Cc1ccc(S(=O)(=O)Nc2c(C)n(C)n(-c3ccccc3)c2=O)cc1 | inactive: 3.45% | –
30 | CCOC(=O)/C(C(C)=O)=C1\OC(=O)c2ccccc21 | inactive: 0.766% | –
31 | C#CCNC(=O)C1=C[C@@H](c2coc3ccccc3c2=O)C[C@@H](OCc2ccc(CO)cc2)O1 | inactive: -11.8% | –
32 | O=S1(=O)C=C(Sc2nc3cc(Cl)ccc3o2)c2ccccc21 | – | active: 6.31 µM
33 | COc1cccc(-c2nc(N3CCN(Cc4ccccc4)CC3)c3ccccc3n2)c1O | inactive: 4.97% | –
34 | CCn1c(=O)cc(SCC(=O)N2CCN(c3ccccn3)CC2)c2ccccc21 | – | active: 16.4 µM
35 | O=C1C2C3c4ccccc4C(c4ccccc43)C2C(=O)N1c1nc(-c2ccccc2)cs1 (stereo not given) | inactive: -4.06% | –
36 | COc1ccc(N(CCC#N)C(=O)/C(C#N)=C/c2cccs2)cc1 | inactive: -1.24% | –
37 | COc1ccc(NS(=O)(=O)c2ccc(N)cc2)nn1 | inactive: 6.24% | –
38 | Cc1cc(NC(=O)Nc2cccc3ccccc23)no1 | inactive: -4.01% | –
39 | C[C@H](NC(=O)c1ccccc1Cl)C(=O)OCc1cn2cc(Cl)ccc2n1 | inactive: -0.172% | –
40 | c1cncc(CNc2ncnc3ccc(-c4ccc5c(c4)OCO5)cc23)c1 | inactive: -10.8% | –
41 | C=CCC[C@@H](Cc1ccc(F)cc1)C(=O)OC[C@H](C)NC(=O)[C@@H](CC=C)CC(=O)N[C@@H](CO)Cc1ccccc1 | inactive: 0.537% | –
42 | CN1CCc2c(c3c(n2C)CCN(C)[C@@H]3c2cccnc2)[C@H]1c1cccnc1 | inactive: 5.78% | –
43 | Cc1ccc(CNC(=O)C2CCN(S(=O)(=O)N3CCCCC3)CC2)cc1 | inactive: -1.21% | –
44 | COc1ccc(-c2n[nH]c(=S)n2/N=C/C=C/c2ccccc2OC)cc1 | inactive: -7.29% | –
45 | Cc1noc(C)c1-c1csc(N2CCC(C(N)=O)CC2)n1 | inactive: 8.68% | –
46 | CCOC(=O)/C(C#N)=C1/C(=O)N(Cc2ccccc2)c2ccccc21 | inactive: 4.69% | –
47 | COc1ccc(CNC(=O)/C(C#N)=C/c2cccc(OC)c2OC)cc1 | – | active: 11.2 µM
48 | CCO[C@@H]1OC(C(=O)N2CCCCCCC2)=C[C@H](c2csc3ccccc23)[C@H]1CCCO | inactive: -5.28% | –
49 | CCOC(=O)C1=C(CN2CCCCC2)NC(=O)NC1c1cc(C)ccc1C (stereo not given) | inactive: -2.91% | –
50 | CC(C)NC(=O)Nc1cccc2c1O[C@H](CN(C)C(=O)NC1CCCCC1)[C@H](C)CN([C@H](C)CO)C2=O | inactive: 1.17% | –
51 | CC(C)(C)OC(=O)C[C@@H]1C/C=C\C[C@H](CC(=O)N[C@@H](CO)Cc2ccccc2)C(=O)N[C@H](C(C)(C)C)COC1=O | inactive: 4.08% | –
52 | COCCN(Cc1cc2cc(C)cc(C)c2nc1Cl)C(=O)Nc1ccccc1 | – | active: 16.4 µM
53 | CCOC(=O)[C@@H]1[C@H]2COc3ccc(Br)cc3[C@H]2N2C(=O)N(c3ccc(Cl)cc3)C(=O)[C@@]12C | inactive: 6.97% | –
54 | CN1CCN(C(=O)C2=C[C@@H](c3coc4ccccc4c3=O)C[C@@H](OCCCCO)O2)CC1 | inactive: -0.834% | –
55 | CCN1C(=NCCCOC(C)C)N[C@@H](CCc2ccccc2)[C@H](C(=O)NCCCOC(C)C)[C@H]1C | inactive: -2.09% | –
